This is one part of the list.

The target in the experiment is T1, MBP-FoxP1dN (Mus musculus, UniProt P58462 326-579).
T1 sequence: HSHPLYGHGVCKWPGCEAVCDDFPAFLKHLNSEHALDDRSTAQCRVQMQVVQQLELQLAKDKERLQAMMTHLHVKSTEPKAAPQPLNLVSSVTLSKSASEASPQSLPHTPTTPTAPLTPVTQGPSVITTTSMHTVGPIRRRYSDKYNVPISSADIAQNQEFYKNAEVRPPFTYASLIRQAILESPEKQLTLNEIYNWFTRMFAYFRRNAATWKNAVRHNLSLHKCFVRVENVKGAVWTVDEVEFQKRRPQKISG
Description: PD-seq (MBP pull-down with sequencing); 20 mM Tris-HCl pH 7.5, 100 mM NaCl, 1.5 mM MgCl2, 0.4 uM protein, 0.1 uM dsDNA library, 30 min, room temperature, amylose pull-down; high values mean tight binding. As to conditions: protein: recombinant; tags: His6-MBP; chain copies: 2; dsDNA, one strand shown. The method in brief: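 E. coli-expressed mouse FoxP3 or FoxP1 fragment, N-terminus removed and tagged with His6-MBP, was used at 0.4 µM against 0.1 µM of a Klenow-filled degenerate double-stranded DNA library. After 30 min at room temperature in Tris pH 7.5 buffer with NaCl and MgCl2, complexes were pulled down on amylose resin and washed three times. Binding is pull-down over input reads-per-million enrichment from pooled replicates of the proteinase K-released, PCR-barcoded, Illumina-sequenced DNA.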
As for “GATGATTGTTCTCCCAGCTGATGAATTCATCCAATCGAGTAAACAAATTTTCCTAATCTTTCTGTTCAAGCGCCATCTAC”, the binding signal was 0.987 RPM ratio (pull-down/input).
With “GATGATTGTTCTCCCAGCTGATGAATTACAACTATCGAGTAAACAAATTTTCCTAATCTTTCTGTTCAAGCGCCATCTAC”, the binding signal was 1.34 RPM ratio (pull-down/input).
“GATGATTGTTCTCCCAGCTGATGAATTAGTTCAATCGAGTAAACAAATTTTCCTAATCTTTCTGTTCAAGCGCCATCTAC”: the binding signal is 0.952 RPM ratio (pull-down/input).
Turning to “GATGATTGTTCTCCCAGCTGATGAATTCAGTCGGTCGAGTAAACAAATTTTCCTAATCTTTCTGTTCAAGCGCCATCTAC”, the binding signal was 0.885 RPM ratio (pull-down/input).
With “GATGATTGTTCTCCCAGCTGATGAATTTGCTGTGTCGAGTAAACAAATTTTCCTAATCTTTCTGTTCAAGCGCCATCTAC”, the binding signal is 1.14 RPM ratio (pull-down/input).
Under “GATGATTGTTCTCCCAGCTGATGAATTCACGGTCTCGAGTAAACAAATTTTCCTAATCTTTCTGTTCAAGCGCCATCTAC” stands 0.809 RPM ratio (pull-down/input); under “GATGATTGTTCTCCCAGCTGATGAATTAATATGTTCGAGTAAACAAATTTTCCTAATCTTTCTGTTCAAGCGCCATCTAC”, 1.14 RPM ratio (pull-down/input); under “GATGATTGTTCTCCCAGCTGATGAATTCGTGAGGTCGAGTAAACAAATTTTCCTAATCTTTCTGTTCAAGCGCCATCTAC”, 0.801 RPM ratio (pull-down/input).
As to “GATGATTGTTCTCCCAGCTGATGAATTCTTTGATTCGAGTAAACAAATTTTCCTAATCTTTCTGTTCAAGCGCCATCTAC”, the binding signal is 0.885 RPM ratio (pull-down/input).
As for “GATGATTGTTCTCCCAGCTGATGAATTAGGCAGCTCGAGTAAACAAATTTTCCTAATCTTTCTGTTCAAGCGCCATCTAC”, the binding signal was 0.787 RPM ratio (pull-down/input).
As to “GATGATTGTTCTCCCAGCTGATGAATTGTTTCTCTCGAGTAAACAAATTTTCCTAATCTTTCTGTTCAAGCGCCATCTAC”, the binding signal was 1.33 RPM ratio (pull-down/input).
In the case of “GATGATTGTTCTCCCAGCTGATGAATTATGCAATTCGAGTAAACAAATTTTCCTAATCTTTCTGTTCAAGCGCCATCTAC”, the binding signal is 1.22 RPM ratio (pull-down/input).
The value for “GATGATTGTTCTCCCAGCTGATGAATTCAAGATCTCGAGTAAACAAATTTTCCTAATCTTTCTGTTCAAGCGCCATCTAC” was 0.814 RPM ratio (pull-down/input); that for “GATGATTGTTCTCCCAGCTGATGAATTATAGCGGTCGAGTAAACAAATTTTCCTAATCTTTCTGTTCAAGCGCCATCTAC” was 0.846 RPM ratio (pull-down/input); that for “GATGATTGTTCTCCCAGCTGATGAATTGACAGCATCGAGTAAACAAATTTTCCTAATCTTTCTGTTCAAGCGCCATCTAC” was 1.44 RPM ratio (pull-down/input).
“GATGATTGTTCTCCCAGCTGATGAATTTATTTGGTCGAGTAAACAAATTTTCCTAATCTTTCTGTTCAAGCGCCATCTAC”: the binding signal is 1.59 RPM ratio (pull-down/input).
In the case of “GATGATTGTTCTCCCAGCTGATGAATTGGTTATTTCGAGTAAACAAATTTTCCTAATCTTTCTGTTCAAGCGCCATCTAC”, the binding signal was 1.13 RPM ratio (pull-down/input).
With “GATGATTGTTCTCCCAGCTGATGAATTGAGCTTCTCGAGTAAACAAATTTTCCTAATCTTTCTGTTCAAGCGCCATCTAC”, the binding signal is 0.815 RPM ratio (pull-down/input).
The value for “GATGATTGTTCTCCCAGCTGATGAATTCCCTGCGTCGAGTAAACAAATTTTCCTAATCTTTCTGTTCAAGCGCCATCTAC” was 0.907 RPM ratio (pull-down/input); that for “GATGATTGTTCTCCCAGCTGATGAATTGAGCTACTCGAGTAAACAAATTTTCCTAATCTTTCTGTTCAAGCGCCATCTAC” was 0.853 RPM ratio (pull-down/input).
For the sequence “GATGATTGTTCTCCCAGCTGATGAATTCAGGAGATCGAGTAAACAAATTTTCCTAATCTTTCTGTTCAAGCGCCATCTAC”, the binding signal was 0.782 RPM ratio (pull-down/input).
In the case of “GATGATTGTTCTCCCAGCTGATGAATTCTCGATATCGAGTAAACAAATTTTCCTAATCTTTCTGTTCAAGCGCCATCTAC”, the binding signal was 0.927 RPM ratio (pull-down/input).
On to “GATGATTGTTCTCCCAGCTGATGAATTAAAATGCTCGAGTAAACAAATTTTCCTAATCTTTCTGTTCAAGCGCCATCTAC”, for which the binding signal is 1.3 RPM ratio (pull-down/input).
Take “GATGATTGTTCTCCCAGCTGATGAATTCCGCCCCTCGAGTAAACAAATTTTCCTAATCTTTCTGTTCAAGCGCCATCTAC”: the binding signal is 0.755 RPM ratio (pull-down/input).
“GATGATTGTTCTCCCAGCTGATGAATTCAGTCGCTCGAGTAAACAAATTTTCCTAATCTTTCTGTTCAAGCGCCATCTAC”: the binding signal was 0.815 RPM ratio (pull-down/input).
As for “GATGATTGTTCTCCCAGCTGATGAATTAACTTTTTCGAGTAAACAAATTTTCCTAATCTTTCTGTTCAAGCGCCATCTAC”, the binding signal is 0.806 RPM ratio (pull-down/input).
As for “GATGATTGTTCTCCCAGCTGATGAATTACCGGTCTCGAGTAAACAAATTTTCCTAATCTTTCTGTTCAAGCGCCATCTAC”, the binding signal was 0.832 RPM ratio (pull-down/input).
For “GATGATTGTTCTCCCAGCTGATGAATTTCGTCCATCGAGTAAACAAATTTTCCTAATCTTTCTGTTCAAGCGCCATCTAC”, the binding signal was 0.922 RPM ratio (pull-down/input).
“GATGATTGTTCTCCCAGCTGATGAATTTAAGCCCTCGAGTAAACAAATTTTCCTAATCTTTCTGTTCAAGCGCCATCTAC”: the binding signal is 0.806 RPM ratio (pull-down/input).
Under “GATGATTGTTCTCCCAGCTGATGAATTACTACTATCGAGTAAACAAATTTTCCTAATCTTTCTGTTCAAGCGCCATCTAC” stands 1.24 RPM ratio (pull-down/input).
Turning to “GATGATTGTTCTCCCAGCTGATGAATTCTTCTGCTCGAGTAAACAAATTTTCCTAATCTTTCTGTTCAAGCGCCATCTAC”, the binding signal is 0.822 RPM ratio (pull-down/input).
